# Measured values from article PMC12041881, “Tailored phenyl ureas eradicate drug-resistant Mycobacterium tuberculosis by targeting mycolic acid cell wall assembly” (Chemical Science, 2025).
# Where two headings read alike, the source gives them in different places.
# Legend:
# Format in all cases: binding
# [1] = molecular target: probe-bound proteins in M. tuberculosis H37Ra cells (Mycobacterium tuberculosis, UniProt O06139); conditions: protein cydB (O06139); 5µM vs noUV
# [2] = molecular target: probe-bound proteins in M. tuberculosis H37Ra cells (Mycobacterium tuberculosis, UniProt O53900); conditions: protein Rv0987 (O53900); 5µM vs noUV
# [3] = molecular target: probe-bound proteins in M. tuberculosis H37Ra cells (Mycobacterium tuberculosis, UniProt P9WG15); conditions: protein Rv2563 (P9WG15); 5µM vs noUV
# [4] = molecular target: probe-bound proteins in M. tuberculosis H37Ra cells (Mycobacterium tuberculosis, UniProt P9WG19); conditions: protein ftsX (P9WG19, Cell division protein FtsX); 5µM vs noUV
# [5] = molecular target: probe-bound proteins in M. tuberculosis H37Ra cells (Mycobacterium tuberculosis, UniProt P9WIP9); conditions: protein hbhA (P9WIP9, Heparin-binding hemagglutinin); 5µM vs noUV
# [6] = molecular target: probe-bound proteins in M. tuberculosis H37Ra cells (Mycobacterium tuberculosis, UniProt P9WJX5); conditions: protein Rv0849 (P9WJX5, Uncharacterized MFS-type transporter Rv0849); 5µM vs noUV
# [7] = molecular target: probe-bound proteins in M. tuberculosis H37Ra cells (Mycobacterium tuberculosis, UniProt P9WJY3); conditions: protein Rv1410c (P9WJY3, Probable triacylglyceride transporter Rv1410c); 5µM vs noUV
# [8] = molecular target: probe-bound proteins in M. tuberculosis H37Ra cells (Mycobacterium tuberculosis, UniProt P9WKF5); conditions: protein adk (P9WKF5, Adenylate kinase); 5µM vs noUV
# [9] = molecular target: probe-bound proteins in M. tuberculosis H37Ra cells (Mycobacterium tuberculosis, UniProt P9WKL9); conditions: protein Rv0968 (P9WKL9, Uncharacterized protein Rv0968); 5µM vs noUV
# [10] = molecular target: probe-bound proteins in M. tuberculosis H37Ra cells (Mycobacterium tuberculosis, UniProt P9WLD7); conditions: protein Rv2300c (P9WLD7, Probable metallo-hydrolase Rv2300c); 5µM vs noUV
# [11] = molecular target: probe-bound proteins in M. tuberculosis H37Ra cells (Mycobacterium tuberculosis, UniProt P9WLY1); conditions: protein Rv1417 (P9WLY1, Uncharacterized protein Rv1417); 5µM vs noUV
# [12] = molecular target: probe-bound proteins in M. tuberculosis H37Ra cells (Mycobacterium tuberculosis, UniProt P9WM75); conditions: protein Rv0085 (P9WM75, Uncharacterized protein Rv0085); 5µM vs noUV
# [13] = molecular target: probe-bound proteins in M. tuberculosis H37Ra cells (Mycobacterium tuberculosis, UniProt P9WMS9)
# [14] = molecular target: probe-bound proteins in M. tuberculosis H37Ra cells (Mycobacterium tuberculosis, UniProt P9WMZ9); conditions: protein Rv2181 (P9WMZ9, Polyprenol-phosphate-mannose-dependent alpha-(1-2)-phosphatidylinositol mannoside mannosyltransferase); 5µM vs noUV
# [15] = molecular target: probe-bound proteins in M. tuberculosis H37Ra cells (Mycobacterium tuberculosis, UniProt P9WP09); conditions: protein Rv0364 (P9WP09, Uncharacterized membrane protein Rv0364); 5µM vs noUV
# [16] = system: probe-bound proteins in M. tuberculosis H37Ra cells; conditions: 5µM vs noUV
# Chain of UniProt P9WM75 (P9WM75 whole entry): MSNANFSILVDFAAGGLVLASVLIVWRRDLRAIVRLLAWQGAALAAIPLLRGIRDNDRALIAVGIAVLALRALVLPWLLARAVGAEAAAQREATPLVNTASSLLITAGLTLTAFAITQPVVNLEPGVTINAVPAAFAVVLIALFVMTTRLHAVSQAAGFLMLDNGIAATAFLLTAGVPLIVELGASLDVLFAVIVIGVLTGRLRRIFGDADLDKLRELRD
# Chain of UniProt P9WJX5 (P9WJX5 whole entry): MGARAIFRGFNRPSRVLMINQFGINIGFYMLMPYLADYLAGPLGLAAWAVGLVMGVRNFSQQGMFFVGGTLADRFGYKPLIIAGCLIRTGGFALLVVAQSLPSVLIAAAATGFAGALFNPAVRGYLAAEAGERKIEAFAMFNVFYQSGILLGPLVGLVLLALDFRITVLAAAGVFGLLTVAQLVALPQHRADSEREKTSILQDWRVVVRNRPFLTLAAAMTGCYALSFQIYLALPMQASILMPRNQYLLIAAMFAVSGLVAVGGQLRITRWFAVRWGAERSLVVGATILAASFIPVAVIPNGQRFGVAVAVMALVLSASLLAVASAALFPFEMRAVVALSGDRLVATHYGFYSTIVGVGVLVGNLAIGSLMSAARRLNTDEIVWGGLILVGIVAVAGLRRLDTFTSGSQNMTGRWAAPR
# Chain of UniProt O53900 (O53900 whole entry): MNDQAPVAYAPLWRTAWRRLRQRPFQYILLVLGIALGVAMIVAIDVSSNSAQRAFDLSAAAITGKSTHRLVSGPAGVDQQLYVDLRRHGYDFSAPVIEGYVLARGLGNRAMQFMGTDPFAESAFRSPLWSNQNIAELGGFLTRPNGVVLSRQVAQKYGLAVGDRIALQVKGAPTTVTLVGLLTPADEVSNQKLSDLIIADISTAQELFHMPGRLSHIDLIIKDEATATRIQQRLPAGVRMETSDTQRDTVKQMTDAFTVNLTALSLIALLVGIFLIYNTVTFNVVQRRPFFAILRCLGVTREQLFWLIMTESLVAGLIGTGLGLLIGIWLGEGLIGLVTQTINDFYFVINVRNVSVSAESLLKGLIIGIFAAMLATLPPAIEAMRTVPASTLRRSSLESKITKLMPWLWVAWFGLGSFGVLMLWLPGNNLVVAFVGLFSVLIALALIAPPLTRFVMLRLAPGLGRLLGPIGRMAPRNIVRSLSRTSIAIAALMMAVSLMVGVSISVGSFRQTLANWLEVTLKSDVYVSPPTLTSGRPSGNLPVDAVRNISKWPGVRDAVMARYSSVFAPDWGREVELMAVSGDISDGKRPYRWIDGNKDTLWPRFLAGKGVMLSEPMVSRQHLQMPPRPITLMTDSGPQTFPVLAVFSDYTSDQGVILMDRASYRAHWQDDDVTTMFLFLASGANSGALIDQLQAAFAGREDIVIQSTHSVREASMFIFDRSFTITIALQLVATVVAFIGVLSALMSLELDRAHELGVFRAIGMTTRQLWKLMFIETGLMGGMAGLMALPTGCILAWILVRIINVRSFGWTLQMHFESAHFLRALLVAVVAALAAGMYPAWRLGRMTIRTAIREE
# Chain of UniProt P9WG19 (P9WG19 whole entry): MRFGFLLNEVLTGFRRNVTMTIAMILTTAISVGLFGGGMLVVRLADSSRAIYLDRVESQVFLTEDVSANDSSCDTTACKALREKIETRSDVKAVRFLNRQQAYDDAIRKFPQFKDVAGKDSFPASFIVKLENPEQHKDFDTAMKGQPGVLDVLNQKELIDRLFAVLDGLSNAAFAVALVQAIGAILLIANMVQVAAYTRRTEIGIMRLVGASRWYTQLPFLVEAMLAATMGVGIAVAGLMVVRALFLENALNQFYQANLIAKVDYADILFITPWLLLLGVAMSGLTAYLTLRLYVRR
# Chain of UniProt P9WLY1 (P9WLY1 whole entry): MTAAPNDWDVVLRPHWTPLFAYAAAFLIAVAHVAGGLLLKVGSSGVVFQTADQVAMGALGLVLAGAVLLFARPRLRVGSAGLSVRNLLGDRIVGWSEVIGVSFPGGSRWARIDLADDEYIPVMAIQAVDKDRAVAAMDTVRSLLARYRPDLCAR
# Chain of UniProt P9WP09 (P9WP09 whole entry): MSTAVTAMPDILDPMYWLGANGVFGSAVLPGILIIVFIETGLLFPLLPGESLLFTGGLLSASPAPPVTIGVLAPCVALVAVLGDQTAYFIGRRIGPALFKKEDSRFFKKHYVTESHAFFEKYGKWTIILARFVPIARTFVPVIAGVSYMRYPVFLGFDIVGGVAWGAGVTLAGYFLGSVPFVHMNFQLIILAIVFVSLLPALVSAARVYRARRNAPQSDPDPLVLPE
# Chain of UniProt P9WKF5 (P9WKF5 whole entry): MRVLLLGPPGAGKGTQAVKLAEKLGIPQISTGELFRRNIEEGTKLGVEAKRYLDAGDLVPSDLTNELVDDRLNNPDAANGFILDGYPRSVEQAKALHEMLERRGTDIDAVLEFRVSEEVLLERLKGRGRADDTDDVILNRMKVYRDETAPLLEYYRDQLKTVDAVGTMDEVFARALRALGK
# Chain of UniProt P9WG15 (P9WG15 whole entry): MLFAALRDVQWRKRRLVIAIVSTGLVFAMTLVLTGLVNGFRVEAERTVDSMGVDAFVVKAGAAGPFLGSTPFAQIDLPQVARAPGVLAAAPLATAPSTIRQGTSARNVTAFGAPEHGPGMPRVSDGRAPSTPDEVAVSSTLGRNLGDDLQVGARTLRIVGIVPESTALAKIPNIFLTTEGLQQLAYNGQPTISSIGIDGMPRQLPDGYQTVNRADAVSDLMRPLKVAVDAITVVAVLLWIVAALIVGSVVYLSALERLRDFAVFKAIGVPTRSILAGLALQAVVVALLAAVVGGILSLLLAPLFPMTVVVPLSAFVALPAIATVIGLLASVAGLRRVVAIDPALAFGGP
# Chain of UniProt P9WMS9 (P9WMS9 whole entry): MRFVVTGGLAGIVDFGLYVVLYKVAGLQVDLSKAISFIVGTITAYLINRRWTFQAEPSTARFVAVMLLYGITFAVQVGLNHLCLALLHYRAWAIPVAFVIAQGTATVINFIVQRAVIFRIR
# Chain of UniProt P9WMZ9 (P9WMZ9 whole entry): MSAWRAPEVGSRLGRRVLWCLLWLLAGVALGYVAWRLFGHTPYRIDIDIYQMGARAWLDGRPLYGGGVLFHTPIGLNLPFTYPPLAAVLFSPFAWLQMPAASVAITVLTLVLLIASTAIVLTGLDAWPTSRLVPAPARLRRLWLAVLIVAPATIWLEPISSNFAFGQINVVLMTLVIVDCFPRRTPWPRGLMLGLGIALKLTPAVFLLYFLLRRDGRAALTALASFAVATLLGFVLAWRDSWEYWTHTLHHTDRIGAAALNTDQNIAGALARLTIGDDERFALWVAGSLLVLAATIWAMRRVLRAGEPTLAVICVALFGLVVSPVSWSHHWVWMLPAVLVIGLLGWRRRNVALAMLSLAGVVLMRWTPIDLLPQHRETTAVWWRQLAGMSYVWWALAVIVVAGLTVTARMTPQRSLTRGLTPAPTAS
# Chain of UniProt P9WIP9 (P9WIP9 whole entry): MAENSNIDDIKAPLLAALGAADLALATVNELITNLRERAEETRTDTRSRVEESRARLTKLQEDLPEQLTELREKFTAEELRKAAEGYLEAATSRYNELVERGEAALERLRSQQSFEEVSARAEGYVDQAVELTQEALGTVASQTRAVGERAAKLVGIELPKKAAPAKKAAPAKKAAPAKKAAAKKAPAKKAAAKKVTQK
# Chain of UniProt P9WLD7 (P9WLD7 whole entry): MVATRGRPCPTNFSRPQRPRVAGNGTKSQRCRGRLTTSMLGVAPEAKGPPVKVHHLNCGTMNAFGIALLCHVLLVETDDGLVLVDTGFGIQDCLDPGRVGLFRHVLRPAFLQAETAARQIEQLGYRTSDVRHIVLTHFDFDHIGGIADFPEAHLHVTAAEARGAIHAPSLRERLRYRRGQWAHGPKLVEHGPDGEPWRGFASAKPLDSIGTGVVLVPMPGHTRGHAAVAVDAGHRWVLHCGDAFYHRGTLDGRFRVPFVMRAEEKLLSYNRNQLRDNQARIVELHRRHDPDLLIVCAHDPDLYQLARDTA
# Chain of UniProt P9WKL9 (P9WKL9 whole entry): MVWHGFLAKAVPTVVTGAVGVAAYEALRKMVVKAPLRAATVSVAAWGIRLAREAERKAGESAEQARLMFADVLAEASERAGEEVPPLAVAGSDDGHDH
# Chain of UniProt P9WJY3 (P9WJY3 whole entry): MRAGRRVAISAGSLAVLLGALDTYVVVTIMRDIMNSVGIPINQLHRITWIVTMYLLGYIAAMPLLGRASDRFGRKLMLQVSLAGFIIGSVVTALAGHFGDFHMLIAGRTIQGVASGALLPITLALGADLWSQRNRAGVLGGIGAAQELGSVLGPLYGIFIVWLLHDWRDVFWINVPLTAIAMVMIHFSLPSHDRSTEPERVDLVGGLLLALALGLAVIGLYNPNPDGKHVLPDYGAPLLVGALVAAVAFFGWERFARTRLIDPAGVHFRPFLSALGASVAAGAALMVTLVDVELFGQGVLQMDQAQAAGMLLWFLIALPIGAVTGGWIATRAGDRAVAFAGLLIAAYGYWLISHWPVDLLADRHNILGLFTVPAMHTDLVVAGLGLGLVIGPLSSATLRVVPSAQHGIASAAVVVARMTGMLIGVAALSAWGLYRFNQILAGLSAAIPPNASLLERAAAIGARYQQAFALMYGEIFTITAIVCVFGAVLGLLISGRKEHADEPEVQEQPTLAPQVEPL
smiles,measurement,setting,value
C#CC1(NC(=O)Nc2ccc(N=[N+]=[N-])cc2)CCCCC1 [Compound 227-p1],Student's T-test Difference DM-JB-68 -5µM_DM-JB-68 -5µM_noUV,[1],0.6362
same,Student's T-test Difference DM-JB-68 -5µM_DM-JB-68 -5µM_noUV,[2],-0.2913
same,Student's T-test Difference DM-JB-68 -5µM_DM-JB-68 -5µM_noUV,[3],0.6088
same,Student's T-test Difference DM-JB-68 -5µM_DM-JB-68 -5µM_noUV,[4],0.3732
same,Student's T-test Difference DM-JB-68 -5µM_DM-JB-68 -5µM_noUV,[5],0.1815
same,Student's T-test Difference DM-JB-68 -5µM_DM-JB-68 -5µM_noUV,[6],0.01259
same,Student's T-test Difference DM-JB-68 -5µM_DM-JB-68 -5µM_noUV,[7],0.9543
same,Student's T-test Difference DM-JB-68 -5µM_DM-JB-68 -5µM_noUV,[8],0.8044
same,Student's T-test Difference DM-JB-68 -5µM_DM-JB-68 -5µM_noUV,[9],0.6741
same,Student's T-test Difference DM-JB-68 -5µM_DM-JB-68 -5µM_noUV,[10],-0.2309
same,Student's T-test Difference DM-JB-68 -5µM_DM-JB-68 -5µM_noUV,[11],0.3491
same,Student's T-test Difference DM-JB-68 -5µM_DM-JB-68 -5µM_noUV,[12],-1.275
same,Student's T-test Difference DM-JB-68 -5µM_DM-JB-68 -5µM_noUV,[13],0.2296
same,Student's T-test Difference DM-JB-68 -5µM_DM-JB-68 -5µM_noUV,[14],0.05102
same,Student's T-test Difference DM-JB-68 -5µM_DM-JB-68 -5µM_noUV,[15],0.1089
same,Student's T-test Difference DM-JB-68 -5µM_DM-JB-68 -5µM_noUV,[16]; protein Rv0077c (O53622),0.3224
same,Student's T-test Difference DM-JB-68 -5µM_DM-JB-68 -5µM_noUV,[16]; protein Rv0133 (P96810),-1.444
same,Student's T-test Difference DM-JB-68 -5µM_DM-JB-68 -5µM_noUV,[16]; protein Rv0180c (O07424),0.9316
same,Student's T-test Difference DM-JB-68 -5µM_DM-JB-68 -5µM_noUV,[16]; protein Rv0464c (O53749),0.005203
same,Student's T-test Difference DM-JB-68 -5µM_DM-JB-68 -5µM_noUV,[16]; protein Rv0473 (I6Y3V3),0.7437
same,Student's T-test Difference DM-JB-68 -5µM_DM-JB-68 -5µM_noUV,[16]; protein Rv1072 (O53420),-0.1783
same,Student's T-test Difference DM-JB-68 -5µM_DM-JB-68 -5µM_noUV,[16]; protein Rv1231c (O86314),0.1051
same,Student's T-test Difference DM-JB-68 -5µM_DM-JB-68 -5µM_noUV,[16]; protein Rv1456c (O53148),0.3985
same,Student's T-test Difference DM-JB-68 -5µM_DM-JB-68 -5µM_noUV,[16]; protein Rv1457c (O86349),0.6268
same,Student's T-test Difference DM-JB-68 -5µM_DM-JB-68 -5µM_noUV,[16]; protein Rv1487 (P71767),-0.313
same,Student's T-test Difference DM-JB-68 -5µM_DM-JB-68 -5µM_noUV,[16]; protein Rv1489 (L7N692),-0.07504
same,Student's T-test Difference DM-JB-68 -5µM_DM-JB-68 -5µM_noUV,[16]; protein Rv1749c (O65935),0.7725
same,Student's T-test Difference DM-JB-68 -5µM_DM-JB-68 -5µM_noUV,[16]; protein Rv1924c (P95289),0.8512
same,Student's T-test Difference DM-JB-68 -5µM_DM-JB-68 -5µM_noUV,[16]; protein Rv2037c (L0TB61),0.6902
same,Student's T-test Difference DM-JB-68 -5µM_DM-JB-68 -5µM_noUV,[16]; protein Rv3092c (I6Y2I9),0.2645
same,Student's T-test Difference DM-JB-68 -5µM_DM-JB-68 -5µM_noUV,[16]; protein Rv3269 (P96874),0.7618
same,Student's T-test Difference DM-JB-68 -5µM_DM-JB-68 -5µM_noUV,[16]; protein Rv3295 (P96900),0.9642
same,Student's T-test Difference DM-JB-68 -5µM_DM-JB-68 -5µM_noUV,[16]; protein Rv3312c (O53363),0.03856
same,Student's T-test Difference DM-JB-68 -5µM_DM-JB-68 -5µM_noUV,[16]; protein Rv3327 (O53377),-0.9266
same,Student's T-test Difference DM-JB-68 -5µM_DM-JB-68 -5µM_noUV,"[16]; protein Rv3365c (Q93IG6, Conserved protein)",0.4576
same,Student's T-test Difference DM-JB-68 -5µM_DM-JB-68 -5µM_noUV,[16]; protein Rv3463 (I6X7D4),-0.1981
same,Student's T-test Difference DM-JB-68 -5µM_DM-JB-68 -5µM_noUV,[16]; protein Rv3519 (O53564),-0.5336
same,Student's T-test Difference DM-JB-68 -5µM_DM-JB-68 -5µM_noUV,[16]; protein Rv3587c (O53572),0.8256
same,Student's T-test Difference DM-JB-68 -5µM_DM-JB-68 -5µM_noUV,[16]; protein Rv3629c (O06378),0.1476
same,Student's T-test Difference DM-JB-68 -5µM_DM-JB-68 -5µM_noUV,[16]; protein Rv3669 (O69637),0.8695
same,Student's T-test Difference DM-JB-68 -5µM_DM-JB-68 -5µM_noUV,[16]; protein Rv3689 (I6YCR8),0.08224
same,Student's T-test Difference DM-JB-68 -5µM_DM-JB-68 -5µM_noUV,[16]; protein Rv3779 (P72045),0.07224
same,Student's T-test Difference DM-JB-68 -5µM_DM-JB-68 -5µM_noUV,[16]; protein chaA (O53910),-0.6885
same,Student's T-test Difference DM-JB-68 -5µM_DM-JB-68 -5µM_noUV,[16]; protein echA21 (P75019),0.5863
